Experimental findings from PMC4336329 (PLoS ONE, 2015) are described below.

In all, about 310,000 compounds went through this assay and about 2,200 (0.71%) showed an effect of 50% or more. The effect is printed as a negative number. The list shows a part of the results.

The target in this assay is human ether-à-go-go-related gene (hERG) potassium channel (human, UniProt Q12809). Put plainly: primary screen, population patch clamp on CHO cells stably expressing hERG.
Chain of human ether-à-go-go-related gene (hERG) potassium channel (Q12809 whole entry, looked up): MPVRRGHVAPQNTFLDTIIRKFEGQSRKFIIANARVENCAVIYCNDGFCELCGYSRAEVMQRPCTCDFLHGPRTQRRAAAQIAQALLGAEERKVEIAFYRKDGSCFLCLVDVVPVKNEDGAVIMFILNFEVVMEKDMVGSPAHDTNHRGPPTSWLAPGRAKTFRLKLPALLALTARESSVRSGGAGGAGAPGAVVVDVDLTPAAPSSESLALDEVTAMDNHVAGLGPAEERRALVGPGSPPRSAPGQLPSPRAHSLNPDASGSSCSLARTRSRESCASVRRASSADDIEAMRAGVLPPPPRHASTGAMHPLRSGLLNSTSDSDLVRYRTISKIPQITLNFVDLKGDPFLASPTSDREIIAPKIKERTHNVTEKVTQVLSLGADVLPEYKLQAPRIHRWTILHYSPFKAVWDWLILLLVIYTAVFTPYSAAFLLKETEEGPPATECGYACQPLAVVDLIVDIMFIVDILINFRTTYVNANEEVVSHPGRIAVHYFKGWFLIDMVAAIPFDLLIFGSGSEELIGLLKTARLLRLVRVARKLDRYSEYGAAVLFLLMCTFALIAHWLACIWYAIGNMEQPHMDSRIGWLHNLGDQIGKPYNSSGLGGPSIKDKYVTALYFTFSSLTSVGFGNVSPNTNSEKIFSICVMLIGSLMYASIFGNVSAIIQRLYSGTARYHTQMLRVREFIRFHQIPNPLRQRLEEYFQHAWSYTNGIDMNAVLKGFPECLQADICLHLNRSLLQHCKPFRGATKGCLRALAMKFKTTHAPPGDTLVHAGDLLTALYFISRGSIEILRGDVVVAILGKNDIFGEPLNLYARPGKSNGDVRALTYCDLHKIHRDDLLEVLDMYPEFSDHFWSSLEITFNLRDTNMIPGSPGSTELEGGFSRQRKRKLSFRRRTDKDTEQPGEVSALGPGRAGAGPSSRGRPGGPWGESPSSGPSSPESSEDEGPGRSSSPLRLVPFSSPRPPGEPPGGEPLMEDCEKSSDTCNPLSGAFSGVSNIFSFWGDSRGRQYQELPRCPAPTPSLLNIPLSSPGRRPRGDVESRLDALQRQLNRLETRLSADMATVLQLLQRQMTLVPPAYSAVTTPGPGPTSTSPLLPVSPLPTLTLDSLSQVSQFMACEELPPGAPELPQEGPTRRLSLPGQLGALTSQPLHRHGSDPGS
With `Cc1ccc(-c2nc(NCc3cccnc3)c3ccccc3n2)cc1`, the “hERG current change (%, negative = inhibition) at 1uM” value is listed as 17.6%.
On to `NC(=O)c1ccccc1NC(=O)CC1(CC(=O)O)CCCC1`, for which the “hERG current change (%, negative = inhibition) at 1uM” value stood at 14.4%.
Take `COc1ccccc1CNC(=O)C(=O)NCC1OCCN1S(=O)(=O)c1ccc(Br)cc1` (stereo not drawn): the “hERG current change (%, negative = inhibition) at 1uM” value was determined as 7.67%.
As to `O=C(/C=C/c1ccccc1)OCCN1C(=O)c2ccccc2C1=O`, the “hERG current change (%, negative = inhibition) at 1uM” value came out at 7.18%.
As for `Cc1ccc(OC(=O)CCS(=O)(=O)c2ccc(C)cc2)cc1`, the “hERG current change (%, negative = inhibition) at 1uM” value worked out at 1.49%.
As for `COc1ccc(Cl)cc1NC(=O)Cn1nnc(C(=O)NCCc2ccc(OC)c(OC)c2)c1N`, the figure is 15.4%.
As to `CCOc1ccc(N(CC(=O)Nc2ccccc2OC)S(=O)(=O)c2ccccc2)cc1`, the “hERG current change (%, negative = inhibition) at 1uM” value turned out to be 10.1%.
For `O=C(Cn1nc(-c2ccc(Cl)cc2)c2ccccc2c1=O)NCC1CCCO1` (stereo not drawn), the “hERG current change (%, negative = inhibition) at 1uM” value was 18%.
On to `CCS(=O)(=O)NCCNc1ccc([N+](=O)[O-])cc1`, for which the “hERG current change (%, negative = inhibition) at 1uM” value was -7.35%.
With `O=C(O)COc1ccc(Cl)cc1CO`, the “hERG current change (%, negative = inhibition) at 1uM” value came out at 7.15%.
As for `COc1cccc(/C=C2\SC(=O)N(CCC(=O)N3CCCCC3CCO)C2=O)c1` (stereo not drawn), the “hERG current change (%, negative = inhibition) at 1uM” value came out at 7.99%.
Turning to `CN(C)c1ccc(/C=N/NC(=O)CNC(=O)/C=C/c2ccccc2)cc1`, the “hERG current change (%, negative = inhibition) at 1uM” value is recorded as -1.73%.
As for `C1=CC2=NC34CCCCC3CC3=C(CCCC3)N4C2=CC1=NC1CCCCC1` (stereo not drawn), the figure is -1.4%; as for `CCOC(=O)Nc1sc2c(c1C(N)=O)CCC(C)C2` (stereo not drawn), 9.64%; as for `Cc1cc2c(c(=O)o1)C(Cc1ccccc1)C(C#N)=C(N)O2` (stereo not drawn), 11.1%.
On to `CCOC(=O)c1cc(-c2csc(COc3ccccc3)n2)on1`, for which the “hERG current change (%, negative = inhibition) at 1uM” value came out at 3.66%.
`Cn1c(SCC(=O)NCCc2ccccc2)nc2c([nH]c3ccccc32)c1=O`: the “hERG current change (%, negative = inhibition) at 1uM” value was found to be 16.9%.
For `COCCCNS(=O)(=O)c1cccc(S(=O)(=O)c2cccc(S(=O)(=O)NCCCOC)c2)c1`, the “hERG current change (%, negative = inhibition) at 1uM” value was 14.1%.
Regarding `Cc1cc(Cl)ccc1NC(=S)N1CCC(C(N)=O)(N2CCCCC2)CC1`, the “hERG current change (%, negative = inhibition) at 1uM” value is listed as 3.64%.
On to `O=C(Nc1ccc(S(=O)(=O)Nc2ncccn2)cc1)c1cc([N+](=O)[O-])ccc1Cl`, for which the “hERG current change (%, negative = inhibition) at 1uM” value turned out to be 22.3%.
Turning to `COc1ccccc1CCNCc1ccc(OC)c(OC)c1OC.O=C(O)C(=O)O`, the “hERG current change (%, negative = inhibition) at 1uM” value stood at 12.2%.
`Cc1c(NC(=O)C(C)Oc2ccccc2F)c(=O)n(-c2ccccc2)n1C` (stereo not drawn): the “hERG current change (%, negative = inhibition) at 1uM” value came out at 12.1%.
To `COc1cccc(NC(=O)c2ccc(C(=O)c3ccccc3)o2)c1` belongs 5.74%; to `CCCCNC(=O)CCc1nc2cccnc2n1Cc1ccc(OC)cc1`, -0.167%; to `Cc1nn2c(NCCN(C)C)c3c(nc2c1-c1ccccc1)CCC3`, 6.68%.
For the compound `COc1cc(/C=N\NC(=O)c2nonc2N)c(OC)cc1Br`, the “hERG current change (%, negative = inhibition) at 1uM” value came to 8.74%.
For `Cc1ccc(OCC(=O)N/N=C/c2cccc3cccnc23)cc1`, the “hERG current change (%, negative = inhibition) at 1uM” value came to 10.6%.
Consider `COc1cccc(N2[C@@H](CC(C)=O)c3ccccc3S2(=O)=O)c1`, for which the “hERG current change (%, negative = inhibition) at 1uM” value was determined as 11.5%.
As for `Cc1ccc(NS(=O)(=O)c2cc(C(=O)NCc3ccccn3)ccc2Cl)cc1C`, the figure is -6.33%.
`CCn1c(=O)cc(OCC(=O)NC(C)c2ccc3c(c2)OCCO3)c2ccccc21` (stereo not drawn): the “hERG current change (%, negative = inhibition) at 1uM” value was determined as 13.1%.
Turning to `CC1CN(Cc2nc3c(c(=O)n(C)c(=O)n3C)n2CCc2ccccc2)CC(C)O1` (stereo not drawn), the “hERG current change (%, negative = inhibition) at 1uM” value is on record as -8.54%.
With `CC(C)(C)c1ccc(OCC(=O)NNC(=O)c2cccnc2)cc1`, the “hERG current change (%, negative = inhibition) at 1uM” value was determined as 13.8%.
In the case of `C=CC(=O)NC(NC(=O)C=C)c1ccccc1F`, the “hERG current change (%, negative = inhibition) at 1uM” value turned out to be 8.02%.
On to `COc1ccc(C(=O)O)cc1S(=O)(=O)N(C)CCc1cccnc1`, for which the “hERG current change (%, negative = inhibition) at 1uM” value turned out to be 15.6%.
With `Nc1nc(-c2sc3nc4c(cc3c2N)CCCC4)nc(N2CCOCC2)n1`, the “hERG current change (%, negative = inhibition) at 1uM” value was 15.7%.
Turning to `CCOC(=O)Cn1cc(C#N)c(=O)[nH]c1=O`, the “hERG current change (%, negative = inhibition) at 1uM” value was 5.27%.
As for `COC(=O)C1=C(c2ccc(F)cc2OCc2ccccc2)C[C@@H]2CC[C@H]1N2C`, the figure is 2.95%; as for `CC(C)(C)C(=O)Nc1ccc(C(=O)OC2CCCCC2)cc1`, 0.866%.
Consider `CN1CCN(NC(=O)CN2C(=O)S/C(=C\c3c(Cl)cccc3Cl)C2=O)CC1`, for which the “hERG current change (%, negative = inhibition) at 1uM” value was found to be 6.28%.
For the compound `O=C(Nc1ccc(CN2CCOCC2)cc1)c1cccc(-c2cc3ccccc3oc2=O)c1`, the “hERG current change (%, negative = inhibition) at 1uM” value is reported as 8.38%.
As to `NNC(=O)/C(=C\c1ccco1)NC(=O)c1ccco1`, the “hERG current change (%, negative = inhibition) at 1uM” value is 3.05%.
As to `CC(C)c1cn(C2OC(COC(=O)c3ccccc3)C(OC(=O)c3ccccc3)C2OC(=O)c2ccccc2)c(=O)[nH]c1=O` (stereo not drawn), the “hERG current change (%, negative = inhibition) at 1uM” value was found to be 13.2%.
Consider `Clc1ccccc1-c1nc(-c2ccc(Br)o2)no1`, for which the “hERG current change (%, negative = inhibition) at 1uM” value came to 15.4%.
For `CCOc1ccc(C(=O)CSCC(=O)O)cc1`, the “hERG current change (%, negative = inhibition) at 1uM” value is recorded as 13.7%.
As for `CCN1CCN(C(=O)COc2ccc(S(=O)(=O)N(C)Cc3ccccc3)cc2)CC1`, the figure is -24.7%; as for `Cc1cc(N2CCN(C)CC2)nc2ccc(NC(=O)CCC(=O)N3CCN(c4ccc([N+](=O)[O-])cc4)CC3)cc12`, 13.8%; as for `COC(=O)c1ccccc1S(=O)(=O)N1CCC(C(=O)OCC(=O)c2ccccc2OC)CC1`, 5.75%.
As for `COc1cc(CCC(=O)OCC(N)=O)cc(OC)c1OC`, the figure is 4.57%.
Take `O=C(COc1ccc([N+](=O)[O-])cc1)NNC(=O)Nc1ccccc1F`: the “hERG current change (%, negative = inhibition) at 1uM” value worked out at 7.31%.
As for `C/C(=N\NC(=O)c1cc(C)oc1C)c1ccc(N2CCOCC2)cc1`, the figure is 12.3%.
As to `COc1ccc(O)c(C(=O)c2cc(C#N)c(=O)n(-c3c(C)n(C)n(-c4ccccc4)c3=O)c2)c1`, the “hERG current change (%, negative = inhibition) at 1uM” value was found to be 11.8%.
Regarding `COc1cccc(N2C(=O)CC(N3CCN(CCN=CC4=C(O)CC(C)(C)CC4=O)CC3)C2=O)c1` (stereo not drawn), the “hERG current change (%, negative = inhibition) at 1uM” value is recorded as 12.5%.
With `CN1C(=O)C(CC(=O)N2CCN(C(c3ccccc3)c3ccccc3)CC2)N(C)C1=O` (stereo not drawn), the “hERG current change (%, negative = inhibition) at 1uM” value stood at 8.2%.
For the compound `Cn1c(SCC(=O)Nc2ccc(N3CCOCC3)cc2)nnc1-c1ccco1`, the “hERG current change (%, negative = inhibition) at 1uM” value worked out at 2.86%.
To `CC(C)[N+](C)(CCOC(=O)C1c2ccccc2Oc2ccccc21)C(C)C.[Br-]` belongs 11.2%; to `Cc1cnc(C(=O)OCc2ccc(COC(=O)c3cnc(C)cn3)cc2)cn1`, 8.16%.
As to `Cc1cccc(NC(=O)CCC(=O)OCc2ccc(Br)cc2)c1`, the “hERG current change (%, negative = inhibition) at 1uM” value is -5.35%.
Regarding `COc1ccc2c(c1)c(C(=O)CN1CCC3(CC1)OCCO3)c(C)n2Cc1ccccc1`, the “hERG current change (%, negative = inhibition) at 1uM” value is -11.5%.
Take `O=C(COc1ccccc1)Nc1ccc(S(=O)(=O)Nc2ccccn2)cc1`: the “hERG current change (%, negative = inhibition) at 1uM” value was determined as 10.5%.
For `O=C(COC(=O)c1ccc2c(c1)OCO2)Nc1nc(-c2ccccc2)cs1`, the “hERG current change (%, negative = inhibition) at 1uM” value was found to be 11.4%.
In the case of `CC1CCc2nc(N)c(C#N)c(-c3ccncc3)c2C1` (stereo not drawn), the “hERG current change (%, negative = inhibition) at 1uM” value was found to be 11%.
For `CC(C)Nc1nc(N(c2ccccc2)c2ccccc2)nc(-n2ccnc2)n1`, the “hERG current change (%, negative = inhibition) at 1uM” value is recorded as 16.3%.
`Cc1ccc(CN(C)CCc2ccccn2)cc1`: the “hERG current change (%, negative = inhibition) at 1uM” value is given as -10.1%.
As for `O=C1CC(N2CCSCC2)C(=O)N1c1cccc(Br)c1` (stereo not drawn), the figure is 5.73%; as for `COc1ccc(C(=O)C2CCCN(C(=O)C3=CCCC3)C2)c(C)c1` (stereo not drawn), 2.5%; as for `O=C(N/N=C/c1cc(Br)c(Br)o1)c1cccnc1`, 6.65%.
As for `Cc1cc(C)nc(NC(=O)c2ccc([N+](=O)[O-])c(C)c2)n1`, the “hERG current change (%, negative = inhibition) at 1uM” value was 15.4%.
Take `CSc1ncc(/C=C2/C(=O)NC(=O)N(c3ccc(C(C)C)cc3)C2=O)cn1`: the “hERG current change (%, negative = inhibition) at 1uM” value is given as 22.2%.
As for `NC(=O)c1cc(S(=O)(=O)NCc2ccccc2)cs1`, the figure is 18.4%; as for `COc1ccc2c(OC)cc(=O)n(C)c2c1`, 11%.
As for `COc1ccc(C(=O)OCC(=O)Nc2ccc(OC(F)F)cc2)c(OC)c1`, the figure is -12.6%.
To `Cc1cc(C)c(OCC(=O)OCC(=O)N2CCCc3ccccc32)c(C)c1` belongs 14.3%; to `COC(=O)c1ccc(Oc2cc(C)nc(NCc3ccccc3)n2)cc1`, 8.18%.
Turning to `CCCOc1ccc(CNC(=O)c2ccc3nc(N4CCOCC4)sc3c2)cc1`, the “hERG current change (%, negative = inhibition) at 1uM” value is reported as 12.7%.
Take `CCCc1cc(-c2n[nH]c(=S)n2CC)cs1`: the “hERG current change (%, negative = inhibition) at 1uM” value is recorded as -10.7%.
Take `COCC(=O)Nc1nc2ccc(C)cc2s1`: the “hERG current change (%, negative = inhibition) at 1uM” value is given as 10.2%.
Regarding `CC1CCc2c(sc3nc(CSc4nnnn4C)[nH]c(=O)c23)C1` (stereo not drawn), the “hERG current change (%, negative = inhibition) at 1uM” value was -1.16%.
Consider `CCCCN(CC)CCNC(=O)c1cc2c(=O)[nH]c3ccc(C)cc3c2s1`, for which the “hERG current change (%, negative = inhibition) at 1uM” value stood at 11%.
For the compound `CC(=O)c1ccc(N2CCN(C(=O)CCNC(=O)Cn3ccc4ccccc4c3=O)CC2)cc1`, the “hERG current change (%, negative = inhibition) at 1uM” value is reported as 19.5%.
On to `CS(=O)(=O)N(CC(=O)N1CCCC1)Cc1ccc(Cl)c(Cl)c1`, for which the “hERG current change (%, negative = inhibition) at 1uM” value was determined as 9.83%.
For the compound `CC(C)(C)n1nnnc1C(c1cccs1)N(Cc1cccnc1)Cc1ccco1` (stereo not drawn), the “hERG current change (%, negative = inhibition) at 1uM” value worked out at 2.32%.
`COc1ccc(OC)c(/C=N/Nc2nc(C)cc(=O)[nH]2)c1`: the “hERG current change (%, negative = inhibition) at 1uM” value is 16.4%.
Regarding `COc1ccc(N2CCN(C(=O)c3ccc(CS(=O)c4cccc(C)c4)o3)CC2)cc1` (stereo not drawn), the “hERG current change (%, negative = inhibition) at 1uM” value is on record as 1.81%.
With `Cc1ccc(C(=O)COc2ccccc2C(=O)Nc2ccccc2)cc1`, the “hERG current change (%, negative = inhibition) at 1uM” value was determined as 7.64%.
Regarding `CS(=O)(=O)O.NC(=Nc1ccccc1)NC(=O)c1nc(Cl)c(N)nc1N`, the “hERG current change (%, negative = inhibition) at 1uM” value is on record as -13.3%.
For the compound `COCCCNC(=O)CCS(=O)(=O)Cc1ccc(C)cc1`, the “hERG current change (%, negative = inhibition) at 1uM” value is listed as -0.724%.
Consider `COc1ccc(N2CCN(C(=O)CCc3nnc4ccc(N5CCC(C)CC5)nn34)CC2)cc1`, for which the “hERG current change (%, negative = inhibition) at 1uM” value is -13%.
